The list shows a part of the results.

Drawing on the antibiotic and cytotoxicity screens of Wong et al. (2023), this text covers cytotoxicity call and growth inhibition call for 27 molecules.

The test system of one experiment is HSkMC. Nature of the experiment: cytotoxicity call (relative viability < 0.9). Conditions: 10 µM.
Another experiment has as its system HepG2. Nature of the experiment: cytotoxicity call (relative viability < 0.9). Conditions: 10 µM.
For the next experiment, the system named is S. aureus RN4220. As to the kind of experiment: growth inhibition call (relative growth <= 0.2). The following applies: 50 µM.

For `C[C@H]1CC/C=C\[C@H]2O[C@@]34C=CCN(CCN5CCOCC5)C(=O)[C@H]3N(CCCO)C(=O)[C@@H]4[C@@H]2C(=O)O1`, the cytotoxicity call in the experiment with HSkMC and in the experiment with HepG2 was “inactive” throughout. Also, the growth inhibition call with S. aureus RN4220 is “inactive”.

On to `COc1ccc(CNC(=O)C[C@@H]2CC[C@H]3[C@@H](COC[C@H](O)CN3S(=O)(=O)c3ccc(C)cc3)O2)cc1OC`, for which the cytotoxicity call with HSkMC and in the experiment with HepG2 was “inactive” in each case. For the same molecule, the growth inhibition call with S. aureus RN4220 was “inactive”.

With `C[C@@H]1CN([C@H](C)CO)C(=O)c2cc(NS(=O)(=O)c3ccc(F)cc3)ccc2O[C@@H](C)CCCCO[C@@H]1CN(C)S(C)(=O)=O`, the cytotoxicity call in the experiment on HSkMC and in the experiment on HepG2 was “inactive” throughout. The growth inhibition call in the experiment on S. aureus RN4220 is “inactive”.

As to `Cc1cc(C(=O)Nc2cccc3c2O[C@H](CN(C)C(=O)Nc2c(C)noc2C)[C@@H](C)CN([C@@H](C)CO)C3=O)n(C)n1`, the cytotoxicity call in the experiment on HSkMC and in the experiment with HepG2 was “inactive” each time. Besides, the growth inhibition call with S. aureus RN4220 is “inactive”.

Regarding `O=C(Cn1nnc2ccccc2c1=O)Nc1nnc[nH]1`, the cytotoxicity call with HSkMC and in the experiment on HepG2 was “inactive” in each case. In addition, in the experiment on S. aureus RN4220, the growth inhibition call was “inactive”.

Turning to `C[C@H]1CN([C@@H](C)CO)C(=O)c2cccc(NC(=O)c3ccc(-c4nccs4)cc3)c2O[C@@H]1CN(C)C(=O)Nc1cccc2ccccc12`, the cytotoxicity call in the experiment with HSkMC and in the experiment on HepG2 was “inactive” each time. The growth inhibition call in the experiment on S. aureus RN4220 was “inactive”.

On to `C[C@H]1CN([C@@H](C)CO)S(=O)(=O)c2ccc(Br)cc2O[C@H]1CN(C)C(=O)CCN1CCCCC1`, for which the cytotoxicity call with HSkMC and in the experiment on HepG2 was “inactive” each time. Also, in the experiment with S. aureus RN4220, the growth inhibition call was “inactive”.

Regarding `C[C@@H]1CN([C@H](C)CO)C(=O)c2c(c3ccccc3n2C)-c2ccccc2CO[C@H]1CN(C)Cc1ccc2c(c1)OCO2`, the cytotoxicity call in the experiment with HSkMC and in the experiment with HepG2 was “inactive” each time. Besides, the growth inhibition call in the experiment on S. aureus RN4220 was “inactive”.

Turning to `C[C@@H]1CCCCO[C@@H](CN(C)S(=O)(=O)c2cn(C)cn2)[C@H](C)CN([C@@H](C)CO)C(=O)c2cc(NS(=O)(=O)c3ccc(F)cc3)ccc2O1`, the cytotoxicity call in the experiment on HSkMC and with HepG2 was “inactive” throughout. For the same molecule, the growth inhibition call in the experiment on S. aureus RN4220 was “inactive”.

For the molecule `COc1ccc(S(=O)(=O)Nc2ccc3c(c2)C(=O)N([C@@H](C)CO)C[C@@H](C)[C@H](CN(C)Cc2ccccc2)OCCCC[C@@H](C)O3)cc1`, the cytotoxicity call in the experiment with HSkMC and in the experiment with HepG2 was “inactive” throughout. Further, the growth inhibition call with S. aureus RN4220 was “inactive”.

With `NCc1cccc(Cl)c1`, the cytotoxicity call in the experiment on HSkMC and in the experiment on HepG2 was “inactive” throughout. Besides, the growth inhibition call with S. aureus RN4220 was “inactive”.

With `COc1ccc(NC(=O)Nc2ccc3c(c2)C(=O)N([C@H](C)CO)C[C@@H](C)[C@H](CN(C)Cc2ccc(Cl)c(Cl)c2)OCCCC[C@H](C)O3)cc1`, in the experiment on HSkMC, the cytotoxicity call was “active”. In the experiment on HepG2, the cytotoxicity call is “inactive”. In addition, in the experiment with S. aureus RN4220, the growth inhibition call was “inactive”.

For the molecule `C[C@H](CO)N1C[C@H](C)[C@@H](CN(C)C(=O)Nc2ccc(C(F)(F)F)cc2)Oc2c(NC(=O)Nc3cccc4ccccc34)cccc2C1=O`, the cytotoxicity call with HSkMC and in the experiment on HepG2 was “active” throughout. The growth inhibition call in the experiment with S. aureus RN4220 was “inactive”.

Take `COc1ccc(S(=O)(=O)N(C)C[C@@H]2Oc3c(NC(=O)Nc4c(C)noc4C)cccc3C(=O)N([C@H](C)CO)C[C@@H]2C)cc1`: the cytotoxicity call with HSkMC and with HepG2 was “inactive” throughout. In addition, the growth inhibition call in the experiment with S. aureus RN4220 was “inactive”.

Consider `COc1ccc(S(=O)(=O)N(C)C[C@@H]2Oc3ccc(NC(=O)CCN4CCOCC4)cc3C(=O)N([C@@H](C)CO)C[C@H]2C)cc1`, for which the cytotoxicity call in the experiment on HSkMC and in the experiment on HepG2 was “inactive” each time. In addition, the growth inhibition call with S. aureus RN4220 is “inactive”.

Regarding `CCOC(=O)N1CCN(C(=O)C2CCN(S(=O)(=O)N(CC)CC)CC2)CC1`, the cytotoxicity call in the experiment on HSkMC and with HepG2 was “inactive” throughout. In the experiment with S. aureus RN4220, the growth inhibition call was “inactive”.

For the molecule `C[C@@H]1CN([C@@H](C)CO)C(=O)c2cc(NS(=O)(=O)c3ccc(F)cc3)ccc2O[C@H]1CN(C)Cc1ccc(Oc2ccccc2)cc1`, the cytotoxicity call in the experiment with HSkMC and in the experiment with HepG2 was “inactive” each time. For the same molecule, the growth inhibition call in the experiment with S. aureus RN4220 is “inactive”.

On to `C[C@H]1CCCCO[C@H](CN(C)Cc2ccc(C(F)(F)F)cc2)[C@@H](C)CN([C@@H](C)CO)C(=O)c2cc(NS(C)(=O)=O)ccc2O1`, for which the cytotoxicity call in the experiment on HSkMC and with HepG2 was “inactive” throughout. In the experiment with S. aureus RN4220, the growth inhibition call was “inactive”.

For `COc1cccc(-c2ccc3c(c2)O[C@@H](CN(C)C(=O)C2CCC2)[C@H](C)CN([C@H](C)CO)S3(=O)=O)c1`, the cytotoxicity call in the experiment on HSkMC and in the experiment on HepG2 was “inactive” in each case. Further, the growth inhibition call in the experiment on S. aureus RN4220 is “inactive”.

For the molecule `C[C@H]1CCCCO[C@@H](CN(C)C(=O)Nc2ccc(C(F)(F)F)cc2)[C@@H](C)CN([C@@H](C)CO)C(=O)c2cc(NC(=O)Nc3ccc(F)cc3)ccc2O1`, the cytotoxicity call in the experiment on HSkMC and with HepG2 was “inactive” in each case. Moreover, the growth inhibition call in the experiment on S. aureus RN4220 is “inactive”.

Consider `C[C@@H]1CN([C@@H](C)CO)C(=O)c2cccc(NC(=O)Nc3cccc4ccccc34)c2O[C@H]1CN(C)C(=O)Nc1ccccc1`, for which the cytotoxicity call in the experiment on HSkMC and in the experiment on HepG2 was “active” throughout. For the same molecule, the growth inhibition call with S. aureus RN4220 is “inactive”.

Turning to `CC(C)NC(=O)N(C)C[C@H]1Oc2c(NS(=O)(=O)c3cn(C)cn3)cccc2C(=O)N([C@@H](C)CO)C[C@@H]1C`, the cytotoxicity call in the experiment on HSkMC and with HepG2 was “inactive” each time. Also, the growth inhibition call in the experiment on S. aureus RN4220 was “inactive”.

Regarding `C[C@@H]1CCCCO[C@H](CN(C)Cc2ccc(C(=O)Nc3ccccc3N)cc2)[C@@H](C)CN([C@@H](C)CO)C(=O)c2cc(NC(=O)Nc3ccc(C(F)(F)F)cc3)ccc2O1`, the cytotoxicity call with HSkMC and with HepG2 was “inactive” throughout. Moreover, in the experiment with S. aureus RN4220, the growth inhibition call was “inactive”.

`Cc1noc(C)c1S(=O)(=O)Nc1cccc2c1O[C@H](CN(C)Cc1ccc(C(=O)O)cc1)[C@@H](C)CN([C@H](C)CO)C2=O`: the cytotoxicity call in the experiment with HSkMC and in the experiment on HepG2 was “inactive” throughout. Further, the growth inhibition call in the experiment on S. aureus RN4220 is “inactive”.

Regarding `COc1ccc(S(=O)(=O)N(C)C[C@H]2OCCCC[C@@H](C)Oc3ccc(NC(=O)Nc4ccc(C(F)(F)F)cc4)cc3C(=O)N([C@@H](C)CO)C[C@H]2C)cc1`, the cytotoxicity call in the experiment on HSkMC (human skeletal muscle cells) and in the experiment with HepG2 was “active” throughout. For the same molecule, the growth inhibition call in the experiment on S. aureus RN4220 was “inactive”.

On to `C[C@H]1CCCN(C(=O)N2c3ccccc3Sc3ccccc32)C1`, for which the cytotoxicity call with HSkMC and in the experiment on HepG2 was “inactive” each time. Further, in the experiment on S. aureus RN4220, the growth inhibition call was “inactive”.

In the case of `Cc1noc(C)c1S(=O)(=O)N(C)C[C@@H]1OCCCC[C@H](C)Oc2ccc(NC(=O)Nc3ccc(F)cc3)cc2C(=O)N([C@H](C)CO)C[C@@H]1C`, the cytotoxicity call in the experiment with HSkMC and in the experiment on HepG2 was “inactive” in each case. In the experiment on S. aureus RN4220, the growth inhibition call was “inactive”.
